In PubChem BioAssay AID2147 (National Center for Advancing Translational Sciences (NCATS), 2009):
Hit rate of the full screen: of about 230,000 compounds, about 3,600 (1.6%) were called active. The shares of active, inactive and inconclusive entries below differ from those in the screen. The call rests on the fitted dose curve; in most records, active means well fitted inhibition curve with a large enough effect (not every such curve was filed as active); inconclusive means small, poorly fitted or top-dose-only effect, or another doubt; inactive means no such curve, though single readings can be large or run the other way. Potencies beside an inconclusive call are fits to weak or partial responses and may not hold up.
Further: nearly all actives have a fitted effect of over 50% in size.
Potency means the concentration at half of the fitted maximal effect; tags describe the fitted curve by direction and shape.
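Wherever activity change, negative = inhibition is given: 0% = wells with enzyme and -100% = buffer wells without enzyme.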

Each compound was assayed against Lysine-specific demethylase 4E (Homo sapiens) (UniProt B2RXH2) (assay: qHTS Assay for Inhibitors of Human Jumonji Domain Containing 2E (JMJD2E)). Conditions: JMJD2E catalytic domain, FDH-coupled NADH fluorescence (FDH is formaldehyde dehydrogenase); series mostly up to 57.1 µM; activity change, negative = inhibition: at the top concentration.
UniProt B2RXH2, sequence (B2RXH2 whole entry, looked up, the tested form may be a part): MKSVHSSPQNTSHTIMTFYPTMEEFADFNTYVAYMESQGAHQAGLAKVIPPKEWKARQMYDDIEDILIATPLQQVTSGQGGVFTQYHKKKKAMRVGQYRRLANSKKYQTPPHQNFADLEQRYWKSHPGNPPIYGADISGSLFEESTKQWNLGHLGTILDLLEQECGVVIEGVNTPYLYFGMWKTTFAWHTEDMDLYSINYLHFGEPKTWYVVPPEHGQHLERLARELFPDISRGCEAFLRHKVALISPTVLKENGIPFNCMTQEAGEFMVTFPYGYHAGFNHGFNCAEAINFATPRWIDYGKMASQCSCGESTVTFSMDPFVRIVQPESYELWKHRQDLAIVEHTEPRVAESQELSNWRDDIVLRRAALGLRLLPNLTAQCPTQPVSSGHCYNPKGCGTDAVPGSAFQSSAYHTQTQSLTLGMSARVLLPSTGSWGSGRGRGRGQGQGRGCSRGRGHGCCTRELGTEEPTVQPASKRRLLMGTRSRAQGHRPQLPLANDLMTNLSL
With `Clc1ccc(-c2nnc(CSc3nnc(-c4cccs4)o3)o2)cc1` the Potency was inconclusive: 39.8 µM [inhibitor, single point].
For `O=C(O)C1Nc2c(O)cccc2C2C=CCC12` (centres undefined), the Potency was active: 17.8 µM.
`Cc1c(N=C2NN=C(c3ccc(Cl)cc3)CS2)c(=O)n(-c2ccccc2)n1C` was tested, and the “activity change, negative = inhibition” value was inactive: -4.03%.
`CCn1c(SCc2nc3sc(C(=O)O)c(C)c3c(=O)[nH]2)nc2ccccc21` was tested, and the “activity change, negative = inhibition” value was inactive: -3.64%.
In the case of `COc1ccc(C(=O)NNC(=O)c2ccc(C(C)(C)C)cc2)cc1`, the “activity change, negative = inhibition” value was inactive: 11.4%.
In the case of `Cc1nnc(SCC2=C(C(=O)O)N3C(=O)C(NC(=O)C(C)n4nc(C(F)(F)F)cc4C)C3SC2)s1` (centres undefined), the Potency was inconclusive: 20 µM [inhibitor, single point].
With `CCC(OC(=O)CCc1nc2ccccc2[nH]c1=O)C(=O)c1ccccc1` (centres undefined) the Potency was inconclusive: 31.6 µM [inhibitor, single point].
With `Cc1nc2c(sc3nc4c(cc32)COC(C)(C)C4)c(=O)n1CC(=O)NCc1ccco1` the Potency was inconclusive: 28.2 µM [inhibitor, partial curve].
`O=C(c1cccs1)N1N=C(c2ccccc2)CC1c1ccccc1O` (centres undefined) was tested, and the Potency was inconclusive: 39.8 µM [inhibitor, single point].
`COc1ccc(NS(=O)(=O)c2cc([N+](=O)[O-])ccc2N/N=C\c2c(C)[nH]c3ccccc23)cc1` was tested, and the “activity change, negative = inhibition” value was inactive: -6.49%.
With `Cc1cc2nc(-c3ccc(SCC(=O)Nc4ccc5c(c4)OCCO5)nc3)[nH]c2cc1C` the Potency was inconclusive: 22.4 µM [inhibitor, partial curve].
With `O=C(CCCCCCCCCCC(=O)NCc1cccnc1)NCc1cccnc1` the “activity change, negative = inhibition” value was inactive: 3.82%.
`CN=C1N[C@H](c2ccccc2)N(c2ccccc2)S1` was tested, and the Potency was active: 7.94 µM.
In the case of `O=C(NCc1cccc(Cl)c1)c1cc(COc2ccc3ncccc3c2)on1`, the Potency was inconclusive: 39.8 µM [inhibitor, single point].
`O=C(O)CCNS(=O)(=O)c1ccc2c(c1)Cc1ccccc1-2` was tested, and the Potency was inconclusive: 39.8 µM [inhibitor, single point].
`CNc1cc([N+](=O)[O-])ccc1N/C=C/C(=O)c1ccc2c(c1)OCO2` was tested, and the “activity change, negative = inhibition” value was inactive: 3.16%.
For `O=C(Cn1c(=S)nc2ccccn21)N1CCc2ccccc2C1`, the Potency was inconclusive: 28.2 µM [inhibitor, single point].
For `COc1ccc([N+](=O)[O-])cc1CSc1ccccn1`, the “activity change, negative = inhibition” value was inactive: -1.62%.
With `Cc1ccc2[nH]c3c(=O)n(CCN4CCOCC4)cnc3c2c1` the Potency was inconclusive: 31.6 µM [inhibitor, partial curve].
For `O=C(CC1Nc2ccccc2NC1=O)NCc1cccnc1` (centres undefined), the Potency was inconclusive: 31.6 µM [inhibitor, single point].
For `CCC(C)NC(=O)Cc1cn(C)c2ccccc12` (centres undefined), the Potency was inconclusive: 35.5 µM [inhibitor, single point].
`CCCCC(=O)Nc1cc([N+](=O)[O-])ccc1Cl` was tested, and the “activity change, negative = inhibition” value was inactive: 10.7%.
In the case of `O=C(CN1C(=O)C2C3C=CC(C3)C2C1=O)Nc1nc(-c2ccccn2)cs1` (centres undefined), the Potency was inconclusive: 35.5 µM [inhibitor, single point].
In the case of `Cc1cccc(Cn2cnc3c(nnn3Cc3ccc(F)cc3)c2=O)c1`, the “activity change, negative = inhibition” value was inactive: 2.13%.
For `Cc1ccc(C(=O)COC(=O)c2cc(=O)[nH]c3ccccc23)cc1`, the Potency was inconclusive: 6.31 µM [inhibitor, single point].
For `c1ccc(-c2csc(Cc3nnc4n3CCCCC4)n2)cc1`, the “activity change, negative = inhibition” value was inactive: 4.27%.
With `NC(=O)COC(=O)c1c2c(nc3ccccc13)CCC2` the Potency was inconclusive: 35.5 µM [inhibitor, single point].
`O=C(O)/C=C/C(=O)Nc1ccc(NC(=O)c2ccccc2)c(Cl)c1` was tested, and the “activity change, negative = inhibition” value was inactive: -3.01%.
In the case of `Cc1cccc(NC(=O)CSc2nnc(-c3ccco3)n2CC2CCCO2)n1` (centres undefined), the “activity change, negative = inhibition” value was inactive: -2.81%.
For `COc1ccc(/C=C/c2ccc(=O)n(Cc3ccccc3)n2)cc1`, the Potency was inconclusive: 31.6 µM [inhibitor, partial curve].
With `CCOC(=O)C1(C)C=C(Nc2ccc(C)cc2)C(=O)N1c1ccc(C)cc1` (centres undefined) the Potency was inconclusive: 8.91 µM [inhibitor, full curve, poor fit].
With `Cc1ccc(N2C(=O)CC(Sc3ccccc3C(=O)O)C2=O)c([N+](=O)[O-])c1` (centres undefined) the “activity change, negative = inhibition” value was inactive: -13.4%.
For `O=c1c2ccccc2nc2n1C(CSc1ccccc1)CS2` (centres undefined), the “activity change, negative = inhibition” value was inactive: -4.97%.
For `Cc1nc2c3cnn(-c4ccc(C)c(C)c4)c3ncn2n1`, the Potency was inconclusive: 39.8 µM [inhibitor, single point].
`CCOc1ccc(CNC(=O)CCc2cn(C)c3ccccc23)cc1OC` was tested, and the Potency was inconclusive: 39.8 µM [inhibitor, single point].
`Nc1c(Cl)cc(Cl)cc1C(=O)OCC(=O)N1CCCC1` was tested, and the Potency was inconclusive: 25.1 µM [inhibitor, partial curve].
For `Cc1ccccc1NC1(C#N)C(=O)Nc2ccccc21` (centres undefined), the “activity change, negative = inhibition” value was inactive: -2.13%.
With `CCOC(=O)c1c(NC(=O)/C=C/c2ccc3c(c2)OCO3)sc(C)c1CC` the Potency was inconclusive: 39.8 µM [inhibitor, single point].
`COc1ccc2c(Cl)c(C(=O)NN)sc2c1` was tested, and the Potency was inconclusive: 35.5 µM [inhibitor, single point].
`Cn1c(=O)c2c(nc(NCc3ccco3)n2C)n(C)c1=O` was tested, and the “activity change, negative = inhibition” value was inactive: 0.0899%.
With `Nc1cccc2nc3ccccc3cc12` the Potency was inconclusive: 28.2 µM [inhibitor, partial curve].
For `O=C(CC(c1ccccc1)c1ccccc1O)NCc1ccccc1Cl` (centres undefined), the “activity change, negative = inhibition” value was inactive: -0.735%.
In the case of `Cc1cc(=O)[nH]c(SCc2nc3ncccn3c2Br)n1`, the Potency was inconclusive: 28.2 µM [inhibitor, partial curve].
In the case of `Cc1ccc(C(=O)Nc2nnc(-c3cccs3)s2)cc1C`, the Potency was inconclusive: 5.62 µM [inhibitor, single point].
`COc1cc(/C=N/N2C(C)CCCC2C)cc(Br)c1O` (centres undefined) was tested, and the Potency was inconclusive: 25.1 µM [inhibitor, single point].
`Cc1c(C)n(C)c2ccc(C(=O)Nc3cccc4ccccc34)cc12` was tested, and the Potency was inconclusive: 31.6 µM [inhibitor, single point].
With `O=C(/C=C/c1ccc([N+](=O)[O-])cc1)N(c1ccccn1)C1CCCCC1` the Potency was inconclusive: 28.2 µM [inhibitor, partial curve].
`CC(C)c1nc(NCc2ccccc2)c(C#N)c2c1CCCC2` was tested, and the Potency was inconclusive: 31.6 µM [inhibitor, partial curve].
With `COC(=O)c1ccc(C2C(C(=O)c3cc4ccccc4o3)=C(O)C(=O)N2CCCN(C)C)cc1` (centres undefined) the “activity change, negative = inhibition” value was inactive: -8.35%.
With `O=C(O)c1ccc(N2CCCCCC2)c(N2C(=O)c3ccccc3C2=O)c1` the “activity change, negative = inhibition” value was inactive: -1.61%.
For `O=C(NCCCCCCNC(=O)c1cncc(O)c1)c1cncc(O)c1`, the Potency was inconclusive: 35.5 µM [inhibitor, single point].
For `CCn1ccnc1CN1CCCC(C(=O)c2ccc3c4c(cccc24)CC3)C1` (centres undefined), the Potency was inconclusive: 25.1 µM [inhibitor, partial curve].
With `CN(C)CCCCOc1ccccc1-c1ccccc1` the Potency was inconclusive: 39.8 µM [inhibitor, single point].
In the case of `COc1ccc(-c2nc3cc(NC(=O)Cc4ccc(OC)c(OC)c4)ccc3o2)cc1`, the Potency was inconclusive: 22.4 µM [inhibitor, partial curve].
With `COc1ccc(N2CCN(Cc3cc(=O)oc4cc5c(cc34)CCCC5)CC2)cc1` the “activity change, negative = inhibition” value was inactive: 7.36%.
With `O=C1CC(Sc2cccs2)C(=O)N1c1ccccc1` (centres undefined) the Potency was inconclusive: 39.8 µM [inhibitor, single point].
For `CS(=O)(=O)n1nc(OC(=O)c2cc(Br)ccc2Cl)cc1N`, the “activity change, negative = inhibition” value was inactive: 7.35%.
With `O=C(COc1ccc(/C=N/NS(=O)(=O)c2ccccc2)cc1)Nc1ccc(F)cc1` the “activity change, negative = inhibition” value was inactive: -0.0237%.
In the case of `CC1CCN(S(=O)(=O)c2ccc(C(=O)Nc3sccc3C(N)=O)cc2)CC1`, the Potency was inconclusive: 25.1 µM [inhibitor, partial curve].
In the case of `O=C(COC(=O)/C=C/c1ccc2c(c1)OCO2)NC1CCS(=O)(=O)C1` (centres undefined), the Potency was inconclusive: 31.6 µM [inhibitor, partial curve].
For `CN(C1CCCC1)C1CCN(C(=O)CNC(=O)/C=C/c2ccccc2)CC1`, the “activity change, negative = inhibition” value was inactive: 8.58%.
`Cn1c(CN2CCN(CC#N)CC2)c(C#N)c2ccccc21` was tested, and the “activity change, negative = inhibition” value was inactive: -2.63%.
`C=CCn1c(SCC(=O)c2ccc(CNC(C)=O)o2)nc2scc(C3CC3)c2c1=O` was tested, and the “activity change, negative = inhibition” value was inactive: -4.68%.
In the case of `O=C(Nc1nnc(-c2ccncc2)s1)C1CCCO1` (centres undefined), the Potency was inconclusive: 22.4 µM [inhibitor, partial curve].
For `Oc1ccccc1NCC(O)Cn1ccc2ccccc21` (centres undefined), the Potency was inconclusive: 31.6 µM [inhibitor, single point].
`CS(=O)(=O)N1CCC(C(=O)Nc2cccc(C(F)(F)F)c2)CC1` was tested, and the Potency was inconclusive: 8.91 µM [inhibitor, single point].
With `COc1ccccc1NS(=O)(=O)c1cc(NC(=O)c2sccc2C)ccc1N1CCCC1` the Potency was inconclusive: 28.2 µM [inhibitor, single point].
With `Cc1nn(C(C)(C)C)c(OC(=O)c2cccs2)c1S(=O)(=O)c1ccccc1` the “activity change, negative = inhibition” value was inactive: 3.48%.
With `COC(=O)c1cn(NC(=O)Cc2cccc(OC)c2)c(=O)c2ccccc12` the Potency was inconclusive: 28.2 µM [inhibitor, single point].
With `COc1ccc(/C=N/NC(=O)c2cccnc2)cc1COc1ccc([N+](=O)[O-])c(C)c1` the “activity change, negative = inhibition” value was inactive: -19.1%.
With `COc1ccc2nc(/N=C(\N)NC(=O)C(C)(C)C)nc(C)c2c1` the Potency was inconclusive: 28.2 µM [inhibitor, partial curve].
In the case of `O=C(c1nn(Cc2ccccc2)c(=O)c2ccccc12)N1CCc2ccccc2C1`, the “activity change, negative = inhibition” value was inactive: -4.32%.
For `NC(=O)COC(=O)c1cc(Cl)cc(Cl)c1N`, the Potency was inconclusive: 31.6 µM [inhibitor, partial curve].
`CN(C)C(/C=C/Nc1ccc(C#N)cc1)=C(C#N)C#N` was tested, and the Potency was inconclusive: 39.8 µM [inhibitor, single point].
